# In the supplement of paper PMC4604168 (melanoma cell lines):
# The other results are listed elsewhere or left out. Many values rest on one well or one pass, so single values are uncertain.
# What was measured:
# Assay in all cases: cell count relative to DMSO control; melanoma cells; higher = more viable cells
# Conditions in all cases: library dose: standard library concentration; 72 h
# G361 = system: G361
# IPC-298 = system: IPC-298
# IST-MEL1 = system: IST-MEL1
# LB2518-MEL = system: LB2518-MEL
# LOXIMVI = system: LOXIMVI
# MEL-HO = system: MEL-HO
# MZ2-MEL = system: MZ2-MEL
# MeWo = system: MeWo
# RPMI7951 = system: RPMI7951
# RVH-421 = system: RVH-421
# 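Further: cells treated in 1,536-well plates, then fixed and DAPI-stained, with nuclei counted from automated high-throughput microscope images.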
SMILES,cell count (G361) [%],cell count (IPC-298) [%],cell count (IST-MEL1) [%],cell count (LB2518-MEL) [%],cell count (LOXIMVI) [%],cell count (MEL-HO) [%],cell count (MZ2-MEL) [%],cell count (MeWo) [%],cell count (RPMI7951) [%],cell count (RVH-421) [%]
"NCC(=O)Nc1ccc(-n2nc(C(F)(F)F)cc2-c2ccc3c(ccc4ccccc43)c2)cc1 + CCc1ccc(CCOc2ccc(CC3SC(=O)NC3=O)cc2)nc1 [pioglitazone] (first compound 5 µM, partner dose 10 µM)",74.4,50.3,79.1,123,95.5,70.1,38.2,111,111,70.4
"C[C@]1(c2nc3c(C(N)=O)cccc3[nH]2)CCCN1 [Veliparib] + COc1cc(Nc2ncc(F)c(Nc3ccc4c(n3)NC(=O)C(C)(C)O4)n2)cc(OC)c1OC [Tamatinib] (first compound 7 µM, partner dose 2 µM)",60.3,85.9,62.5,75.3,35.1,65,80.3,73.3,40.9,97.1
"OCCn1cc(-c2cnc3nnn(Cc4ccc5ncccc5c4)c3n2)cn1 + COc1ccc2c(c1)CCC1C2CCC2(C)C(NCCCCCCN3C(=O)C=CC3=O)CCC12 [U73122] (first compound 5 µM, partner dose 2 µM)",113,105,98.4,108,252,103,95.2,75.5,60.3,79.9
"C=CCn1c(=O)c2cnc(Nc3ccc(N4CCN(C)CC4)cc3)nc2n1-c1cccc(C(C)(C)O)n1 + O=C(O)C(=O)Nc1sc2c(c1C(=O)O)CCNC2 [TCS401] (first compound 0.1 µM, partner dose 8.33333 µM)",69.4,76.7,104,57.8,77.3,85.4,98.3,84,61.7,75
"C=CCn1c(=O)c2cnc(Nc3ccc(N4CCN(C)CC4)cc3)nc2n1-c1cccc(C(C)(C)O)n1 + O=S(=O)(c1ccccc1)N(CC(F)(F)F)c1ccc(C(O)(C(F)(F)F)C(F)(F)F)cc1 [T0901317] (first compound 0.1 µM, partner dose 7 µM)",69.7,71.5,95.9,61,82.1,94.1,88.6,76,44.2,105
"Cc1nc(Nc2ncc(C(=O)Nc3c(C)cccc3Cl)s2)cc(N2CCN(CCO)CC2)n1 [dasatanib] + Oc1cc(-c2nc(-c3ccccc3)[nH]c2-c2ccncc2)ccc1Cl [L779450] (first compound 0.02 µM, partner dose 1 µM)",72.9,78.2,52.2,83.5,15.4,80.4,45.2,74.1,34,56
"OCCn1cc(-c2cnc3nnn(Cc4ccc5ncccc5c4)c3n2)cn1 + COc1cc2ncnc(Nc3ccc(Oc4ccccc4)cc3)c2cc1OC [SrcI1] (first compound 5 µM, partner dose 10 µM)",69.5,76.3,86.6,119,75.2,89.4,81.7,91,49.9,124
"C[C@]1(c2nc3c(C(N)=O)cccc3[nH]2)CCCN1 [Veliparib] + O=C(O)c1ccc(-c2c[nH]c3ncc(-c4ccccc4)cc23)cc1C1CCCC1 [GSK650394] (first compound 7 µM, partner dose 0.8 µM)",73.9,98.5,71,82.5,81,76.2,90,89.1,71.7,86.5
"Cc1nc(Nc2ncc(C(=O)Nc3c(C)cccc3Cl)s2)cc(N2CCN(CCO)CC2)n1 [dasatanib] + CCCCCCCCCCCC1=C(O)C(=O)C=C(O)C1=O [Embelin] (first compound 0.02 µM, partner dose 6 µM)",47.5,68.5,61.2,73.4,12.7,66.4,40.1,71.6,35.7,65.2
"Cc1nc(Nc2ncc(C(=O)Nc3c(C)cccc3Cl)s2)cc(N2CCN(CCO)CC2)n1 [dasatanib] + Cn1cncc1[C@@](N)(c1ccc(Cl)cc1)c1ccc2c(c1)c(-c1cccc(Cl)c1)cc(=O)n2C [tipifarnib] (first compound 0.02 µM, partner dose 0.05 µM)",56.9,91.3,31.4,67.8,12,70.3,64,79.5,29.7,48.9
"NCC(=O)Nc1ccc(-n2nc(C(F)(F)F)cc2-c2ccc3c(ccc4ccccc43)c2)cc1 + O=C(Nc1ccccc1)c1cc([N+](=O)[O-])ccc1Cl [GW9662] (first compound 5 µM, partner dose 10 µM)",67.6,50.9,88.9,83.3,73.7,78.4,71.9,69.3,71.5,70.3
"CO[C@@H]1[C@H](N(C)C(=O)c2ccccc2)C[C@H]2O[C@]1(C)n1c3ccccc3c3c4c(c5c6ccccc6n2c5c31)C(=O)NC4 [Midostaurin] + NC(=O)Nc1cc(-c2cccc(F)c2)sc1C(=O)N[C@H]1CCCNC1 [AZD7762] (first compound 0.4 µM, partner dose 0.1 µM)",60.7,52.4,58,42.9,46,54.1,66,60.4,24.4,72.8
"NC(=O)Nc1cc(-c2cccc(F)c2)sc1C(=O)N[C@H]1CCCNC1 + Oc1nc(-c2ccc(C(F)(F)F)cc2)nc2c1CSCC2 [XAV939] (first compound 0.1 µM, partner dose 10 µM)",82.9,81.7,94.5,64.8,107,72.3,99,106,33.1,115
"C=CCn1c(=O)c2cnc(Nc3ccc(N4CCN(C)CC4)cc3)nc2n1-c1cccc(C(C)(C)O)n1 + COc1ccc(COc2ccc(Cc3cnc(N)nc3N)cc2OC)cc1 [GW2580] (first compound 0.1 µM, partner dose 5 µM)",74.2,74.7,108,71.7,101,86.6,102,80.5,70.6,109
"CO[C@@H]1[C@H](N(C)C(=O)c2ccccc2)C[C@H]2O[C@]1(C)n1c3ccccc3c3c4c(c5c6ccccc6n2c5c31)C(=O)NC4 [Midostaurin] + Oc1cc(-c2nc(-c3ccccc3)[nH]c2-c2ccncc2)ccc1Cl [L779450] (first compound 0.4 µM, partner dose 1 µM)",43.7,60.6,64.4,65.7,39.4,62.9,44.8,49.8,36.3,67
"NC(=O)Nc1cc(-c2cccc(F)c2)sc1C(=O)N[C@H]1CCCNC1 + Oc1cc(-c2nc(-c3ccccc3)[nH]c2-c2ccncc2)ccc1Cl [L779450] (first compound 0.1 µM, partner dose 1 µM)",82.5,82.9,92.1,52.1,107,58,88.9,92.4,34.5,89.9
"CO[C@@H]1[C@H](N(C)C(=O)c2ccccc2)C[C@H]2O[C@]1(C)n1c3ccccc3c3c4c(c5c6ccccc6n2c5c31)C(=O)NC4 [Midostaurin] + O=C1NC(=O)/C(=C/c2ccc(-c3ccc(F)cc3O)o2)S1 [AS252424] (first compound 0.4 µM, partner dose 5 µM)",49.5,55.6,74.6,70.2,248,55.9,34.8,67.4,41.5,61
"CN(C)S(=O)(=O)c1ccc2c(c1)/C(=C/c1cc3c([nH]1)CCCC3)C(=O)N2 + c1cc(-c2cnn3cc(-c4ccc(OCCN5CCCCC5)cc4)cnc23)ccn1 [Dorsomorphin] (first compound 2 µM, partner dose 2 µM)",45.3,57.8,75.7,65,117,79.7,60.2,54.4,38.7,74.4
"NC(=O)Nc1cc(-c2cccc(F)c2)sc1C(=O)N[C@H]1CCCNC1 + CCc1ccc(CCOc2ccc(CC3SC(=O)NC3=O)cc2)nc1 [pioglitazone] (first compound 0.1 µM, partner dose 10 µM)",78,78.2,94,70.6,93.3,81.2,95.8,71.6,23.6,107
"Cc1nc(Nc2ncc(C(=O)Nc3c(C)cccc3Cl)s2)cc(N2CCN(CCO)CC2)n1 [dasatanib] + Cc1cc(N2CCOCC2)cc2[nH]c(-c3c(NC[C@@H](O)c4cccc(Cl)c4)cc[nH]c3=O)nc12 [BMS536924] (first compound 0.02 µM, partner dose 1 µM)",54,69.9,50.6,46.9,13.3,76.8,59.7,63.7,24.6,61
"C[C@]1(c2nc3c(C(N)=O)cccc3[nH]2)CCCN1 [Veliparib] + Cc1cc([N+](=O)[O-])ccc1NS(=O)(=O)c1cc(Cl)ccc1Cl [FH535] (first compound 7 µM, partner dose 5 µM)",44.7,55.2,56.9,75.9,63.1,57.3,58.5,74,83,73.9
"NCC(=O)Nc1ccc(-n2nc(C(F)(F)F)cc2-c2ccc3c(ccc4ccccc43)c2)cc1 + N#Cc1c(O)c2c(-c3ccc(-c4ccccc4O)cc3)csc2[nH]c1=O [A769662] (first compound 5 µM, partner dose 10 µM)",76.8,48.4,68,96.1,78,78.7,101,89.9,75.3,69
